Each structure is given as a SMILES string. Over roughly 110,000 compounds, “z-score” has its median near -0.1; the highest 2% begin near 2. The list shows a part of the results. Activity calls are given as the source filed them.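 The calls were made as follows: active = z-score in the third read window above 3 or below -3; inactive = the rest.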

This assay deals with Metabotropic glutamate receptor 8 (Rattus norvegicus) (UniProt P70579). Briefly: rat mGluR8 modulators via GIRK flux, primary screen, cell-based, thallium flux, HTS (AID 488969). Particulars: HEK293 rat mGluR8, GIRK (G protein-gated inwardly rectifying potassium channel) thallium flux, FluoZin2; at 10 µM; stronger effect = higher value; submaximal glutamate (EC20) added with thallium.
Chain of UniProt P70579 (P70579 whole entry, looked up): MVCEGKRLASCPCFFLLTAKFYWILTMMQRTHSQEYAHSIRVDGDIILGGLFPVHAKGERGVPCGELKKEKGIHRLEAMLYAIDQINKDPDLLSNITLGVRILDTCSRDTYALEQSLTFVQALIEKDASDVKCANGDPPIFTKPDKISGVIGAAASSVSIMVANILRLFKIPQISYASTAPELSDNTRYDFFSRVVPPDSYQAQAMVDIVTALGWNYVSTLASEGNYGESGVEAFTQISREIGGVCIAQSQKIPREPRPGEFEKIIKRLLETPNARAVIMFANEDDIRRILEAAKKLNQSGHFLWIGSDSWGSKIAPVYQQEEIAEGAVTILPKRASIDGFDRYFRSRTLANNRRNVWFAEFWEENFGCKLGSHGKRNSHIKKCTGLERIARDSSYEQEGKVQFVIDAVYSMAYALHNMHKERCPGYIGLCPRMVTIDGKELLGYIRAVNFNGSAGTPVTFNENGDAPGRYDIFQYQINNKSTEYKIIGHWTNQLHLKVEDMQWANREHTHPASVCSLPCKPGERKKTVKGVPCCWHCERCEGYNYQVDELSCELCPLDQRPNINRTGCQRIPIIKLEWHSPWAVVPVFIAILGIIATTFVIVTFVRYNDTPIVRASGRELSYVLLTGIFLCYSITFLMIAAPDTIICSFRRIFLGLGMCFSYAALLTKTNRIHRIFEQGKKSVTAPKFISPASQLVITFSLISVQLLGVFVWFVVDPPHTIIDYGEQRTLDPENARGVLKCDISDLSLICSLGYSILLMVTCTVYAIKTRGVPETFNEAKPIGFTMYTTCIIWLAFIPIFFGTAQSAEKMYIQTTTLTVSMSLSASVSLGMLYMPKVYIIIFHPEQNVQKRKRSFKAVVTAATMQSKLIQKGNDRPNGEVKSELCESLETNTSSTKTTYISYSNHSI
Turning to `CC1CC(C)CN(C(=O)c2ccc3c(=O)n(Cc4ccc5c(c4)OCO5)c(=S)[nH]c3c2)C1` (centres undefined), the z-score stood at 0.905.

For the compound `COc1ccccc1-n1cnnc1SCC(=O)Nc1nc(C)c(Cl)cc1Cl`, the z-score is -0.0697.

Compound `O=C(Nc1ccc(C(F)(F)F)cc1)c1cccnc1N1CCOCC1` displayed a z-score of -0.395.

As to `O=C(Nc1cccc(F)c1)C1CCN(C(=O)c2ccc(Cl)cc2)CC1`, the z-score was -0.113.

In the case of `CC1CCc2c(sc3nc(CN4CCOCC4)nc(NS(=O)(=O)c4cccc([N+](=O)[O-])c4)c23)C1` (centres undefined), the z-score was -0.0756.

In turn, `COC(=O)CSc1nnc2n(C3CCCCC3)c(=O)c3c4c(sc3n12)CCCC4` registered a z-score of -1.63.

In turn, `COC(=O)c1c(NC(=O)c2cccs2)sc2c1CCCC2` showed a z-score of 0.126.

Turning to `COc1ccc(S(=O)(=O)N(C)C2CCN(C)CC2)cc1`, the z-score was -1.75.

Consider `COc1ccccc1NS(=O)(=O)c1cc(C(=O)N2CC(C)CC(C)C2)ccc1C` (centres undefined), for which the z-score is -0.222.

Take `Cc1ccc(F)cc1NC(=O)CCC(=O)c1cccs1`: the z-score amounted to 0.13.

With `CCCc1cc(=O)[nH]c(/N=C(\N)Nc2ccccc2)n1`, the z-score worked out at 0.28.

`CN1CCN(C2=Cc3cc(Cl)ccc3Sc3cc(F)ccc32)CC1` returned a z-score of 0.634.

`O=C(c1cccnc1)c1cccnc1`: the z-score was -0.0723.

As for `Cc1c(C(=O)NCc2cccnc2)oc2c1C(=O)CC(C)(C)C2`, the z-score worked out at 1.2.

With `CC1CCc2nn(CC(=O)NCCCN3CCCCC3)cc2C1` (centres undefined), the z-score was 0.564.

In turn, `C/C=C(\C)CN1CCN(c2ccccc2F)CC1` gave a z-score of -0.558.

In turn, `CC(C)COC(=O)NCCCOC(=O)Nc1ccccc1` showed a z-score of -0.19.

`CCc1cccc2c(C(=O)CCl)c[nH]c12` displayed a z-score of 0.343.

In the case of `Cc1nc2c(c(C)c1C#N)C(=O)c1ccccc1-2`, the z-score is -0.182.

Take `CCCCn1c(=O)n(CC(=O)Nc2ccc(OC)c(Cl)c2)c(=O)c2c1nc(CO)n2CCC`: the z-score was -0.391.

`C/C(=N\NS(=O)(=O)c1ccc(Br)cc1)c1cccs1`: the z-score was -0.381.

In the case of `N/C(=N\c1nc2ccccc2o1)NC(=O)c1ccc(Cl)cc1`, the z-score turned out to be 0.0444.

Consider `COc1ccc(N2CCN(C(CNC(=O)c3cccc(Cl)c3)c3cccnc3)CC2)cc1` (centres undefined), for which the z-score was -1.22.

As to `Fc1cccc(Oc2nc3ccccc3n3cccc23)c1`, the z-score was determined as 0.097.

The compound `Fc1ccccc1OCCSc1nc2ccccc2o1` had a z-score of -0.0268.

The compound `O=C(N/N=C\c1ccc(COc2ccc([N+](=O)[O-])cc2)o1)c1cccc(Cl)c1` had a z-score of 0.0171.

`O=C(Nc1ccccc1Cl)NC1(C(=O)N2CCCC2)CCCCC1` showed a z-score of -1.16.

Consider `CC1(C)CC(=O)C2=C(C1)OC(N)=C(C#N)C2C#Cc1ccccc1` (centres undefined), for which the z-score is -1.68.

As for `Cn1c(=O)cc(OCCCC(=O)N2CCN(c3ccccn3)CC2)c2ccccc21`, the z-score is -0.588.

In turn, `COc1cc(Cl)c(S(=O)(=O)N2CC(C)OC(C)C2)cc1Cl` (centres undefined) had a z-score of -0.57.

On to `O=C(COC(=O)c1cccnc1Nc1ccccc1F)NCCN1C(=O)CSC1=O`, for which the z-score is -0.0449.

For `CCC(c1nnnn1C1CCCCC1)N(Cc1ccco1)Cc1cc2ccc(OC)cc2[nH]c1=O` (centres undefined), the z-score worked out at 0.0417.

The compound `COc1ccc(CCNC(=O)c2cnccn2)cc1` showed a z-score of -0.26.

The compound `S=C(c1nc2ccccc2[nH]1)N1CCOCC1` yielded a z-score of 0.262.

`Cc1ccc(CCNC(=O)C2CCN(S(=O)(=O)N3CCCC3)CC2)cc1` yielded a z-score of -0.00207.

With `COc1ccccc1CNc1cc(-c2ccccc2)ccc1OC`, the z-score is -0.45.

Consider `COc1cc(CC(=O)NCc2ccccn2)cc(OC)c1OC`, for which the z-score was determined as 0.148.

Consider `Cc1ccc(S(=O)(=O)N(CC(=O)N2CCCCC2)c2cccc(C)c2)cc1`, for which the z-score is -0.184.

As to `COCCNc1nnc(SCC(=O)c2c[nH]c3ccccc23)s1`, the z-score was determined as 0.0416.

In turn, `CC(C)C(=O)Nc1cccc(NC(=S)NC(=O)c2ccc([N+](=O)[O-])cc2)c1` registered a z-score of -0.0455.

For `O=c1cc(N2CCCCC2)c(-c2ccccc2)nn1Cc1cccc(Cl)c1`, the z-score came to 0.184.

For the compound `Cc1n[nH]c(C)c1SCC(=O)Nc1ccc(F)cc1`, the z-score is 0.159.

In turn, `CC(C)CNC(=S)Nc1ccc(F)cc1` displayed a z-score of 0.209.

Take `CCOC(=O)c1cc2c(=O)[nH]ccc2nc1C`: the z-score was determined as 0.19.

Turning to `CC1=[N+]([O-])C(C)(C)C(c2ccc(Br)cc2)=[N+]1[O-]`, the z-score is -0.24.

Turning to `NNC(=O)c1nnn(-c2nonc2N)c1-c1cccs1`, the z-score is -0.0988.

Take `CN(C)c1ccc(/C=C(/NC(=O)c2ccccc2)C(=O)N/N=C/c2ccc([N+](=O)[O-])c(O)c2)cc1`: the z-score is -0.0283.

Compound `CC(=O)NC1=NC(=O)CS1` yielded a z-score of 0.048.

As for `CCCS(=O)(=O)N1CCCC(C(=O)NCCCN(CC)c2cccc(C)c2)C1` (centres undefined), the z-score is -0.0529.

As for `O=C(NC1CCCCC1)c1cccc(Cn2cc(Cl)cn2)c1`, the z-score is -0.355.

For `NC(=O)CSCc1ccc(Br)cc1`, the z-score is -0.0319.

As to `C=CCSc1nnc2c(n1)OC(c1ccccn1)N(C(C)=O)c1ccccc1-2` (centres undefined), the z-score is -0.0527.

`CCCCCCCC(O)CC(CC1CCCCC1)C(=O)NN` (centres undefined) displayed a z-score of -0.104.

In turn, `Cc1cc(NC(NC(=O)c2ccco2)(C(F)(F)F)C(F)(F)F)no1` gave a z-score of -0.0405.

`COc1cccc(-n2cnc(=O)c3cccnc32)c1` registered a z-score of -0.177.

As to `CCN(CC)C(=O)n1nc(C)c(CN2C(=O)c3ccccc3C2=O)c1C`, the z-score is -0.151.

Compound `O=S(=O)(c1ccc(F)c(Cl)c1)N1CCCC1` registered a z-score of -0.346.

`C/C(=N\NC(=O)c1cccnc1)c1c(O)cc(C)oc1=O` registered a z-score of -0.172.

The compound `CCN(CC)S(=O)(=O)c1cc(Br)ccc1OC` returned a z-score of -0.0877.

Compound `Cc1ccc(-c2nc(N/N=C/c3ccncc3)c3ccccc3n2)cc1` registered a z-score of -0.0845.

The compound `O=S(=O)(NN=C1CCCCCCC1)c1ccc(Br)cc1` gave a z-score of -0.033.

Turning to `Oc1[nH]c2ccccc2c1N=NC(=S)NCCc1ccccc1`, the z-score is active: 3.06.

Compound `COc1ccc(C2(C(=O)Nc3ccc(C(=O)O)cc3)CCOCC2)cc1` showed a z-score of -0.492.

`COC(=O)COc1ccc(S(=O)(=O)NCc2cccnc2)cc1` had a z-score of 0.415.

The compound `Cn1c(=O)oc2cc(S(=O)(=O)NC3CCCCCCC3)ccc21` yielded a z-score of -0.856.

The compound `Cc1ccc(C)c2[nH]c(=O)c(CN(Cc3nnnn3C3CCCCC3)CC3CCCO3)cc12` (centres undefined) came in with a z-score of 0.487.

In the case of `CCOC(=O)CNC(=O)CSc1nnc(C)c(=O)[nH]1`, the z-score was -0.0508.

Turning to `CCOC(=O)c1cnc(SCC(=O)c2ccc(Cl)cc2)nc1N`, the z-score was -0.0912.

Take `O=C(NCCCN1CCOCC1)C(=O)N/N=C/c1c2ccccc2cc2ccccc12`: the z-score was -0.528.

On to `COC(=O)c1ccc(NC(=O)CSc2nnc(CNc3ccc(OC)cc3)n2C)cc1`, for which the z-score was -0.738.

For `O=C(c1ccc(Cl)cc1)c1c[nH]cc1-c1ccccc1`, the z-score amounted to 0.0819.

For the compound `O=c1c2ccccc2ncn1CCCSc1ccccc1`, the z-score is -0.415.

Regarding `Cc1cc(=O)[nH]c(Nc2cccc(C(F)(F)F)c2)n1`, the z-score amounted to 0.0124.

`CCN1C(=O)C2(SC(NC(C)=O)=NN2C(C)=O)c2cc(C)ccc21` (centres undefined): the z-score was -0.0699.

The record behind these values is PubChem BioAssay AID488969 (Vanderbilt High Throughput Screening Facility, 2010).
